Drawing on PubChem BioAssay AID1963981 (Molecular Pharmacology Branch, DTP, NCI, 2024), this text covers viability, T/C and IC50 for 6 compounds.

A word on the viability, T/C: it is the ratio of treated to control. Usually IC50 stands for the concentration that inhibits the measured activity by half.

This test deals with 354836-022-R-J1-PDC multicell spheroid viability. Put plainly: Anticancer human tumor 354836-022-R-J1-PDC patient-derived head and neck squamous cell carcinoma cell line growth inhibition [PI3K]. Particulars: for viability, T/C: stronger effect = lower value. From the text: Combinatorial screen of targeted agents with the PI3K inhibitors inavolisib, alpelisib, duvelisib, and copanlisib in multi-cell type tumor spheroids
A high-throughput screen of multi-cell type tumor spheroids was designed to identify active combinations of targeted small molecules and PI3K pathway inhibitors. Complex spheroids include a stromal component modeled by human endothelial cells (HUVEC) and fibroblasts modeled by human mesenchymal stem cells (MSCs). The concentration ranges selected for each drug and investigational agent were based upon clinically achievable concentrations if the clinical Cmax of the agent was known.
Compounds. The drugs and investigational agents: inavolisib (NSC800729), alpelisib (NSC765974), duvelisib (NSC772469), copanlisib (NSC816437), ipatasertib (NSC767898), afuresertib (NSC778305), talazoparib (NSC767125), sapanisertib (NSC764658), selumetinib (NSC741078), tovorafenib (DAY101, NSC766906), vemurafenib (NSC761431), ravoxertinib (NSC781343), sotorasib (NSC818433), MRTX1133 (NSC 836407), abemaciclib (NSC 768073), palbociclib (NSC758247), venetoclax (NSC 766270), SY5609 (NSC837396), enzalutamide (NSC755605), and darolutamide (NSC825331), were obtained from the National Cancer Institute (NCI) Developmental Therapeutics Program Chemical Repository. The FDA-approved anticancer drug set is available from the NCI Developmental Therapeutics Program. […] The stock solutions were prepared in dimethyl sulfoxide (DMSO, Sigma-Aldrich, St. Louis, MO, cat. D2650) at 800-fold the tested concentration and stored at -70 degrees C prior to their use. All drugs and investigational agents were tested over a range starting from a high concentration at or near the clinical Cmax and decreasing in half-log increments. If the clinical Cmax for an agent had not been determined, the highest concentration tested was 10 microM.
Cell Culture. All cells were maintained in an incubator at 37 degrees C and 5% CO2 with 95% humidity. The PDC lines were cultured according to standard operating procedures established by the NCI PDMR (https://pdmr.cancer.gov/sops/default.htm). All PDCs were thawed and cultured in Matrigel-coated flasks prepared with a working solution of 1X Ham's F-12 nutrient mix, without supplementation (Invitrogen, Waltham, MA, cat. 11765054), 100 U/mL penicillin-streptomycin (Invitrogen, cat. 15140122), and 2.5% Matrigel (Corning Inc., Corning, NY, cat. 354248) for the first three passages. The 354836-022-R-J1-PDC, 475296-252-R-J1-PDC, and 997726-040-R-J2-PDC lines were cultured in 6A media, which includes advanced DMEM/F-12 (Thermo Fisher Scientific, cat. 12634028), 10 mM HEPES (Thermo Fisher Scientific, cat. 15630080), 1X GlutaMAX supplement (Thermo Fisher Scientific, cat. 35050061), 0.1 mg/mL primocin (InvivoGen, San Diego, CA, cat. ant-pm-2), 10% defined fetal bovine serum, heat inactivated (HyClone Laboratories Inc., Logan, UT, cat. SH30070.03HI), 50% L-WRN conditioned media (ATCC, cat. CRL-3276), 1.25 mM N-Acetyl-L-cysteine (Sigma-Aldrich, cat. A9165), 10 mM nicotinamide (Sigma-Aldrich, cat. N0636), 1X B-27 supplement (Thermo Fisher Scientific, cat. 17504044), 1X N-2 supplement (Thermo Fisher Scientific, cat. 17502048), and 10 microM Y-27632 dihydrochloride (Tocris Bioscience, Bristol, United Kingdom, cat. 1254). The 624824-186-R-J2-PDC line was cultured in 6C/Colon 1B media, which includes all 6A media components plus 50 ng/mL human EGF recombinant protein (Thermo Fisher Scientific, cat. PHG0311). […]

A number of entries come with more than one value. The list is limited to them. An entry can have further records. Values that stand side by side are repeated measurements (runs, samples, wells, individuals or studies).
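Further: spheroids exposed to agents for seven days before the viability read.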

`C#Cc1c(F)ccc2cc(O)cc(-c3ncc4c(N5CC6CCC(C5)N6)nc(OCC56CCCN5CC(F)C6)nc4c3F)c12` (centres undefined): the viability, T/C (compound alone 0.316 µM) is on record as 92, 90, 109, 121%.

For `CC1(C)CCC(CN2CCN(c3ccc(C(=O)NS(=O)(=O)c4ccc(NCC5CCOCC5)c([N+](=O)[O-])c4)c(Oc4cnc5[nH]ccc5c4)c3)CC2)=C(c2ccc(Cl)cc2)C1`, under “compound alone”, the half-maximal inhibitory concentration (IC50) is recorded as 4.1 µM, 3.89 µM, > 10 µM, 4.33 µM. The viability, T/C is on record as 95, 89.5, 78.8, 108% (compound alone 0.1 µM) and 3.32, 12.6, 105, 3.61% (compound alone 10 µM). Regarding `Cc1nc(NC(=O)N2CCCC2C(N)=O)sc1-c1ccnc(C(C)(C)C(F)(F)F)c1` (centres undefined), the viability, T/C (compound alone 0.316 µM) is listed as 84.3, 94.2, 95.9, 87.6, 95.8, 86.7, 83, 110%.

As for `C=CC(=O)N1CCN(c2nc(=O)n(-c3c(C)ccnc3C(C)C)c3nc(-c4c(O)cccc4F)c(F)cc23)C(C)C1` (centres undefined), the viability, T/C was 87.4, 94.9, 101, 114% (compound alone 1 µM) and 97.4, 110, 121, 90.8% (compound alone 3.16 µM). For the compound `CCCS(=O)(=O)Nc1ccc(F)c(C(=O)c2c[nH]c3ncc(-c4ccc(Cl)cc4)cc23)c1F`, the viability, T/C (compound alone 0.0316 µM) is reported as 91.8, 108, 85.7, 80.9%. For `CCN1CCN(Cc2ccc(Nc3ncc(F)c(-c4cc(F)c5nc(C)n(C(C)C)c5c4)n3)nc2)CC1`, the viability, T/C (compound alone 1 µM) was 72.7, 70.2, 59.1, 43%.
